# The full ranking holds about 33,000 sequences; the median of “E-score (-0.5 to 0.5)” is about -0.021, and the highest 2% start at about 0.32. Some of the results follow.
# Molecular target: T1, Zap1 (UniProt P47043)
# T1 sequence: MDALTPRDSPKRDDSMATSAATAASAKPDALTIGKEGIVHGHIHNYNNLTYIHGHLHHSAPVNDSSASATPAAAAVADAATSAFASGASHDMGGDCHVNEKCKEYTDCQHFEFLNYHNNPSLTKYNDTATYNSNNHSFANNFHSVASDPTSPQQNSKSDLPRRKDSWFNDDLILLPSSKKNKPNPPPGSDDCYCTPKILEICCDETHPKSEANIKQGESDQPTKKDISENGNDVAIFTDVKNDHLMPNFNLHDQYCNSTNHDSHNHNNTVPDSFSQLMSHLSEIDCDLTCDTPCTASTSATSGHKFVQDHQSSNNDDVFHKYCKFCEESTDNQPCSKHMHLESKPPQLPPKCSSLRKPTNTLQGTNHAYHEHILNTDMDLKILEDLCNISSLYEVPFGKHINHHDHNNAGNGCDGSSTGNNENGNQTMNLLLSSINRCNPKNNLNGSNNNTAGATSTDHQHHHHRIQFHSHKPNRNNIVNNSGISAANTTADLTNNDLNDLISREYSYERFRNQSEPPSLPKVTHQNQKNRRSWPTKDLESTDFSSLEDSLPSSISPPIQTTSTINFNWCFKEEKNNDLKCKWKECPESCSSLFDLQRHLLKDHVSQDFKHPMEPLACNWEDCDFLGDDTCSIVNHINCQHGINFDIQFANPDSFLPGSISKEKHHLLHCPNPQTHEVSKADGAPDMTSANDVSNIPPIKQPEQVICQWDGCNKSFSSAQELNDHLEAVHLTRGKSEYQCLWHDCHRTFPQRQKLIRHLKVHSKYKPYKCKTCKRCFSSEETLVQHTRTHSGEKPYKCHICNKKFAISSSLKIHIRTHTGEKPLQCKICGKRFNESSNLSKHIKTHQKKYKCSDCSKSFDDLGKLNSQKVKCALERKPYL
# Assay: PBM E-score (8-mer binding enrichment) (E-score (-0.5 to 0.5)); higher = stronger / more preferred TF binding; most listed sequences are background and not binding sites
# Conditions: protein concentration: 200 nM; construct: GST-full length
# Outline: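 For each ungapped eight-base word taken together with its reverse complement, the Universal PBM Analysis Suite assigned an E-score. Binding data came from GST-tagged yeast transcription factors, applied at about 100-200 nM, on universal all-10-mer Agilent arrays made double-stranded by primer extension. Fluorescent anti-GST marked bound protein, and scans were normalised with masliner.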
row,Sequence,PBM E-score
1,CATTTTAG,0.174
2,TCTTTACA,0.169
3,ATTCGAAG,0.0566
4,TAGAGCAA,-0.0476
5,AGCTAAAA,-0.00168
6,ATGGCATG,-0.0339
7,TGATCGAA,0.0647
8,GTCGGCGA,-0.325
9,CAGCTCAG,-0.283
10,ATATTTCC,-0.0308
11,CCTGTCCC,-0.161
12,AATGGTGT,-0.00805
13,TATGCCGA,0.0602
14,CGTGTCCA,-0.137
15,GATTAAAC,0.107
16,AGAACCTG,0.0538
17,ATGTCGTA,0.0191
18,TAACGATA,0.19
19,ACCAAGTG,0.0166
20,AGGGCGGA,-0.103
21,AGGGACTC,-0.132
22,ATGCCTGC,-0.329
23,CTACGTAA,-0.0774
24,ATGGAGGC,-0.197
25,CATACAGA,0.0322

row,Sequence,PBM E-score
1,AAGTTCGA,0.0624
2,AAGCTTGT,0.15
3,CGAGCTTA,-0.117
4,CCTGATCC,-0.191
5,GCCGTCAA,-0.161
6,AGCGACAA,-0.0783
7,AAGGTTTG,0.176
8,GTTTGGCA,-0.0669
9,CTTCTGCC,-0.219
10,CCTATCTC,-0.031
11,GACGGCTC,-0.258
12,CTGGAGCA,-0.0643
13,TATGGCAA,-0.214
14,AAATACCC,0.328
15,GCTCGGCC,-0.218
16,GCAAAGCA,-0.231
17,CTATCGAC,-0.227
18,AATCGGGA,-0.0678
19,AGGGCTCA,-0.1
20,CTCCCGTC,-0.117
21,ACAGTACT,0.00174
22,GCCGAAAA,0.214
23,CTGTACGC,-0.236
24,CTAGTGCA,-0.117
25,AGTCAACT,-0.328

row,Sequence,PBM E-score
1,ACAAATTC,0.0554
2,CAATCGGC,-0.0345
3,CAGTATTC,-0.0283
4,CACAATAA,0.126
5,CCAAGCTC,0.137
6,GCCGCACC,0.0244
7,CCTGACAG,0.0346
8,TGTGCCAA,-0.0459
9,GCCAAACA,0.0567
10,GGCAACCA,0.116
11,AGATGAAG,-0.216
12,GCCTGTTA,-0.186
13,ACTCATGG,0.0485
14,AGGGGCTG,-0.0614
15,ATTTCTTC,0.0398
16,CCATTGCA,0.0104
17,ACTTACTG,-0.164
18,CCGTAGCC,-0.126
19,AGTTCTAC,-0.114
20,ACCGACCG,-0.0194
21,CTCGAACA,0.0432
22,CAATTGAC,-0.0961
23,CCACCGCC,0.0368
24,GAGACTCA,-0.0313
25,ATTTGGCA,0.0027

row,Sequence,PBM E-score
1,CTGCTTAA,0.0787
2,CCAGTTAG,0.00998
3,CTGCCCAG,-0.253
4,CAGCTAAG,-0.232
5,ACAACGTG,-0.0732
6,CTGAAGTA,0.0214
7,CGGCAACG,-0.256
8,GGCTAGAC,-0.184
9,CGGTAATC,0.119
10,CTATCCTA,-0.138
11,CTCCACAC,-0.128
12,ATGGTTAG,0.316
13,GCAAATCC,-0.0781
14,AGCATCCA,-0.117
15,GGGGAGCA,-0.395
16,CTGCAAAG,-0.132
17,AACCGGAG,0.255
18,GCCGCCAC,-0.122
19,CCACTTAA,0.0997
20,CCGCTTCC,-0.203
21,ACAGTTGC,0.0663
22,ATTTACCA,0.0973
23,AGGTGCTC,-0.177
24,CATCTACG,-0.0887
25,AAGAGATC,-0.252

row,Sequence,PBM E-score
1,AGCCCCAC,-0.11
2,AAACTCGC,-0.0708
3,CGTTCAAG,0.0598
4,GGGCTGGA,-0.17
5,ACAGTGGC,-0.0712
6,GCAGAGGA,-0.0972
7,CAGTAACG,0.0273
8,TACCTCGA,0.233
9,AACACAGT,-0.00444
10,TCCCATAA,0.182
11,GGATACCA,0.17
12,GAGAGTAC,-0.0748
13,GATACCGA,-0.0307
14,AGGGAGTC,-0.23
15,AAGGTCGT,0.334
16,AAAGCCTC,-0.19
17,ATAAATCA,0.106
18,AGTGGAGC,-0.353
19,CCGGTGAA,0.0664
20,TATGCCAA,0.102
21,AGGTGGCA,0.00608
22,CGGAGCTA,-0.191
23,CTACGGAA,-0.124
24,AACTTGAC,0.124
25,GCGCCGAC,-0.282

row,Sequence,PBM E-score
1,GCATTAGA,0.0441
2,CCCTGCAC,0.0155
3,GCTCCAAA,-0.0722
4,ATTAATAA,0.21
5,ATCTCCGG,0.0468
6,AACGAGCA,-0.0771
7,ATCCTATG,-0.141
8,ATTTAAGG,0.069
9,TGAGGGAA,-0.169
10,AATCATGG,0.0519
11,AGCAGGCC,-0.143
12,AATAGTCA,-0.0427
13,AACGTCTC,-0.207
14,CTACGCTA,-0.192
15,GGAGGATA,-0.248
16,ATTTCTGG,0.0521
17,ATCTCGAA,0.0457
18,CTGTGAGC,-0.1
19,TACACGTA,-0.0778
20,AATGAGGT,0.235
21,CGTCATCA,-0.116
22,CCCTACAC,0.0286
23,ATAATAGC,-0.189
24,CAACGCAC,-0.0359
25,CTAGTCTC,-0.151

row,Sequence,PBM E-score
1,AATTAATG,0.0953
2,CATGACTA,-0.209
3,ACCTATCC,0.152
4,ACTTGTGG,0.154
5,CACTTAGC,-0.169
6,AAATTTTC,0.0442
7,CCTGTTCA,-0.104
8,AAGGATCG,-0.0555
9,CCCACAAG,0.231
10,CAAGGAGC,-0.24
11,AAATGACA,-0.08
12,ATTCCTGA,-0.13
13,CGCGGAGA,-0.0473
14,CTGCTACA,-0.134
15,CCGTGTCA,-0.114
16,TCGACTAA,-0.0044
17,CCCTGGGC,0.0761
18,CAAACTTC,0.0004
19,AGGTACTA,0.29
20,CCCCCCCC,-0.412
21,CCGGGGCC,0.109
22,TCGAGACA,-0.031

# Reference: the supplement of paper PMC3334620
